Hit rate of the full screen: of about 310,000 compounds, about 2,200 (0.71%) showed an effect of 50% or more. Effects have a minus sign here. The list shows a part of the results.
The compounds below were run against human ether-à-go-go-related gene (hERG) potassium channel (human, UniProt Q12809) (assay: primary screen, population patch clamp on CHO cells stably expressing hERG).
human ether-à-go-go-related gene (hERG) potassium channel, sequence (Q12809 whole entry, looked up): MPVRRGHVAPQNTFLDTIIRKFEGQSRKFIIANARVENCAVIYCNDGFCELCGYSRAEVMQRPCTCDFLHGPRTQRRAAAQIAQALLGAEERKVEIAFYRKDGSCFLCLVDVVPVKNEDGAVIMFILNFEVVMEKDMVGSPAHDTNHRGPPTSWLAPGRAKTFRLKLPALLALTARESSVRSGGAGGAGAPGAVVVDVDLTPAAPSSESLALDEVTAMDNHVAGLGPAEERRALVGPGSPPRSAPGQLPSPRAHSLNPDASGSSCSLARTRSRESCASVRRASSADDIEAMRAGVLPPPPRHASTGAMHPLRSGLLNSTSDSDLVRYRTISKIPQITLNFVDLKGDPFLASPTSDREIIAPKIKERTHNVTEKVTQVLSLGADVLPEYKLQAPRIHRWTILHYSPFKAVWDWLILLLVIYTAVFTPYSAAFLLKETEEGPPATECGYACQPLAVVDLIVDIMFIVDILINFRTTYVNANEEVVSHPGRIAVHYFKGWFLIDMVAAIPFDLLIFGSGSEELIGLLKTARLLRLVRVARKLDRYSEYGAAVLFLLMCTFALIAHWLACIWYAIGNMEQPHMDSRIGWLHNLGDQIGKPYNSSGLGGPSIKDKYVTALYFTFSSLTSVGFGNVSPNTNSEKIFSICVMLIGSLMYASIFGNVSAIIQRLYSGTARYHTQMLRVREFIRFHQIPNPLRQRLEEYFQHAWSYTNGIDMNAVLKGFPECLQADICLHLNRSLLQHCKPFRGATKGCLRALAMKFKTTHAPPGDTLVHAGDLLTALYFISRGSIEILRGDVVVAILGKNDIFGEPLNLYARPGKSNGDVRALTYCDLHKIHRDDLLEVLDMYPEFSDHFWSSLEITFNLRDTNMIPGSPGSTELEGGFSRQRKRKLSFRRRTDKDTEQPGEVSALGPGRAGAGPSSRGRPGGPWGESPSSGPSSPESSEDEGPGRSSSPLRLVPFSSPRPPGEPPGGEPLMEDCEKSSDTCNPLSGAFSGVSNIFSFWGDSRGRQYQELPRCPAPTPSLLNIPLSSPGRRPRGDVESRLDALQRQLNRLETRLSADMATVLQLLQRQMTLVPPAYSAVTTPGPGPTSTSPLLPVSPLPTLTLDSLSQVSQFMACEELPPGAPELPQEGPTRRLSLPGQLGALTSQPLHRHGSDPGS

SMILES	hERG current change (%, negative = inhibition) at 1uM
COc1ccc(NC(=O)CSc2n[nH]c(C)c2[N+](=O)[O-])cc1	10.8%
O=C(CCN1C(=O)c2ccc([N+](=O)[O-])cc2C1=O)Nc1cccc(O)c1	11%
CCCCOc1ccc(NC(=O)C(=O)NCCC2=CCCCC2)cc1	9.57%
CCC(=O)Nc1cccc(-c2cn3ccsc3n2)c1	15.1%
COc1ccccc1CNC(=O)CN1C(=O)c2ccc([N+](=O)[O-])cc2C1=O	12.4%
COc1cc(NC(=O)c2ccccc2-c2ccccc2)cc(OC)c1	-8.83%
O=C(c1ccco1)N(Cc1ccco1)c1ccc(O)cc1	16.5%
COC(=O)C1CN(C(=O)COc2ccccc2C)c2ccccc2O1 (stereo not shown)	10.4%
Cc1ccc(C2SCC(C(=O)O)N2C(=O)c2ccc(F)cc2)cc1 (stereo not shown)	8.81%
Cc1c(Cl)cccc1NC(=O)C1CCN(S(C)(=O)=O)CC1	6.36%
C[C@@]12C(=O)Nc3ccccc3C(=O)N1[C@H]1c3cc(Br)ccc3OC[C@@H]1[C@@H]2c1ccccc1	6.95%
CCOC(=O)N1CCN(S(=O)(=O)c2ccc(OC)c(OC)c2)CC1	-11.4%
COc1cccc(CN2CCN(Cc3ccc(C)o3)CC2CCO)c1 (stereo not shown)	1.05%
Cc1cc(C)n2nc(C(=O)Nc3c(C)nn(Cc4ccc(F)cc4)c3C)cc2n1	12%
CCc1nn(CC(=O)NCCN2CCOCC2)c(=O)c2cc3c(OC)cccc3n12	11.9%
CCCNC1=C(C)C(=O)CC1	15.9%
Cn1ncc(Cl)c(Oc2ccc(C(C)(C)C)cc2)c1=O	11.3%
NC(=O)CSc1nnc(SCc2ccc(F)cc2)s1	7.37%
CCC(C)n1c(=O)c(C(=O)Nc2ccccc2S(N)(=O)=O)c(O)c2ccccc21 (stereo not shown)	8.97%
O=C(O)c1ccc(NS(=O)(=O)c2cc(Cl)sc2Cl)cc1	16.5%
COc1cc(C(=O)NCCC2=CCCCC2)ccc1OC1CCN(C(C)=O)CC1	16.8%
Cc1cc(C)c(NC(=O)CN2CCN(c3ccccn3)CC2)c(C)c1	10.9%

SMILES	hERG current change (%, negative = inhibition) at 1uM
Nc1c(Cl)c(Cl)nc(C(=O)N/N=C/c2ccco2)c1Cl	13.3%
CCc1ccc(NC2=CC(=O)CC(c3ccco3)C2)cc1 (stereo not shown)	12.9%
CC(Sc1nncn1C)C(=O)NCc1ccc2c(c1)OCO2 (stereo not shown)	21%
NS(=O)(=O)c1ccc(NC(=S)NCc2ccc3c(c2)OCO3)cc1	16.4%
Clc1ccc(OCc2nnnn2-c2ccccc2)cc1	4.02%
COc1cc(OC)c(NC(=O)CN(C)S(=O)(=O)c2ccc(-c3ccc(=O)[nH]n3)s2)cc1Cl	5.27%
COC(=O)C1=CO[C@@H](O[C@@H]2O[C@H](CO)[C@@H](O)[C@H](O)[C@H]2O)[C@H]2[C@@H]1C(=O)C[C@@H]2C	9.74%
CC1CN(C(=S)NC(=O)C2CCCCC2)CC(C)O1 (stereo not shown)	8.75%
CCCc1nnc(NC(=O)C23CC4CC(CC(C4)C2)C3)s1	11.8%
O=C(NCC1(N2CCCCC2)CCCCC1)c1ccc(S(=O)(=O)N2CCCC2)cc1	-5.87%
O=C(O)c1ccc2c(c1)-c1nc3ccccc3n1C2=O	14.6%
O=C(CN(C(=O)CNC(=O)c1ccco1)c1ccc2c(c1)OCCO2)NC1CCCC1	8.83%
COC(=O)CCCNC(=O)CCc1nnc(-c2ccc(-c3ccccc3)cc2)o1	10.2%
Cc1cc(-c2ccc(S(=O)(=O)N3CCN(c4ccc(F)cc4)CC3)s2)on1	12%
CCN(CCC(=O)Nc1cc([N+](=O)[O-])ccc1OC)Cc1ccccc1	4.85%
CCNC(=O)N1CCC(n2nccc2NC(=O)CCOc2ccccc2)CC1	12.9%
Cc1sc(NC(=O)C2=COCCO2)nc1-c1ccc(Cl)cc1	10.9%
CCc1nn2c(=O)cc(COC(=O)c3cc(Cl)c(OC)c(OC)c3)nc2s1	-26.3%
C/C(Cl)=C/Cn1c(=O)c2c(nc(Br)n2Cc2ccccc2)n(C)c1=O	-1.21%
COc1ccc(CCNC(=O)Cn2c(=O)[nH]c3ccsc3c2=O)cc1OC	12.7%
O=C(NCCc1cccc(F)c1)C1CCN(S(=O)(=O)c2ccc(F)cc2)CC1	11.2%
CCO[C@@H]1OC(C(=O)Nc2ccccc2)=C[C@H](c2csc3ccccc23)[C@H]1CCCO	2.71%

SMILES	hERG current change (%, negative = inhibition) at 1uM
CSc1nc(-c2ccc(C)cc2)nc(C(Cl)Cl)n1	6.45%
Cc1c(C(=O)NN2CCOCC2)oc2ccccc12	3.89%
COC(=O)c1sc2nc(CSc3nc4ccc(C)cc4[nH]3)[nH]c(=O)c2c1C	14%
CC(C)C[C@H](NC(=O)c1[nH]cnc1C(=O)Nc1ccc(CNC(=O)OC(C)(C)C)cc1)C(=O)OCc1ccccc1	13%
N#C/C(=C\c1c(N2CCN(c3ccccc3)CC2)nc2ccccn2c1=O)C(N)=O	8.18%
CCC(CO)NC(=O)c1cc2c(s1)CCC2 (stereo not shown)	1.86%
O=C(CNC(=O)c1ccc(Br)cc1)NC1CC1	9.77%
CCc1nc2ccc(C(=O)NCCc3ccc(OC)cc3)cc2nc1CC	4.49%
Cc1cccc(C)c1NC(=O)NC1(C(=O)N2CCCC2)CCCCC1	13.5%
CCN(CC)C(=O)C1CCC(C)(C(=O)O)C1(C)C (stereo not shown)	13%
CCCCC1=CC2=CC(=O)C(C)(OC(=O)c3ccco3)C(=O)C2=CO1 (stereo not shown)	1.12%
CCn1c(COc2cccc3ccccc23)nnc1SCC(N)=O	9.97%
C/C(=N\NC(=O)c1ccncc1)c1ccc(N(C)C)cc1	12.2%
O=C(OCc1nnc(-c2ccccc2)o1)C1CCN(S(=O)(=O)c2cccs2)CC1	16.9%
COc1ccc(C(=O)Nc2cccc(-c3nc4ncccc4o3)c2C)cc1	4.69%
Cc1c(N/C=C/C(=O)c2ccc(Cl)cc2)c(=O)n(-c2ccccc2)n1C	6.53%
O=C(CSc1nnnn1-c1ccc(O)cc1)Nc1cccc(S(=O)(=O)N2CCCC2)c1	2.38%
CCOC(=O)Cc1csc(NC(=O)c2sc3nc4cc(C)ccc4cc3c2N)n1	7.39%
Cn1c(C(=O)N2CCCC(C(=O)NCc3ccc4c(c3)OCO4)C2)cc2sccc21 (stereo not shown)	-6.21%
CCOC(=O)c1cc(C)sc1NC(=O)CN1CCN(C(=O)c2ccco2)CC1	-14.7%
Cc1ccc(S(=O)(=O)NC(=O)c2cc(C)n(CCCN3CCOCC3)c2C)cc1	16.5%
Cc1cccc(N2CCN(S(=O)(=O)c3ccc4c(c3)CCN4C(=O)CCC(=O)O)CC2)c1C	5.73%

SMILES	hERG current change (%, negative = inhibition) at 1uM
COc1ccc(CCN(C)Cc2ccncc2)cc1OC	-18%
COc1ccc(C(=O)OCC(=O)Nc2ccccc2)cc1[N+](=O)[O-]	9.05%
CCCCNC(=O)Nc1ccccn1	11%
COC(=O)c1cc(NC(=O)Cn2nc(C)n3cccc3c2=O)cc(C(=O)OC)c1	8.54%
CC1CN(C(=O)c2cccs2)CCN1C(=O)c1cccs1 (stereo not shown)	14.6%
CC(C)(C)c1ccc(NC(=S)NCCc2ccccn2)cc1	10.4%
O=C(/C=C/c1cc([N+](=O)[O-])ccc1OC(F)F)Nc1cccc([N+](=O)[O-])c1	15.8%
CC(C)NC(=NCc1ccc(Cl)cc1Cl)Nc1ccccc1	5.58%
O=C(c1ccccc1Br)N1N=C(c2ccccc2)CC1c1ccccc1F (stereo not shown)	16.5%
O=c1[nH]c(=S)[nH]c(O)c1N=Nc1ccc2c(c1)OCCO2	12.5%
CC(=O)Nc1c(NCC(C)C)c2ccccc2oc1=O	14.7%
O=C(NCC1CCCO1)c1nn2c(C(F)(F)F)cc(-c3cccs3)nc2c1Br (stereo not shown)	0.26%
O=C(N/N=C/c1ccc2nccnc2c1)c1ccccc1O	13.6%
CCOC(=O)CC1=C(C(=O)OCC)C(c2ccc(OC)c(OC)c2)C(C#N)=C(N)O1 (stereo not shown)	2.42%
COc1ccccc1C(=O)C1CCCN(C(=O)c2ccc(C(C)=O)s2)C1 (stereo not shown)	13.3%
Cc1ccc(Cl)cc1N1CCN(C(=O)Cn2ccc3ccccc3c2=O)CC1	14.2%
COc1cc(NC(=O)CN2C(=O)COc3ccc(S(=O)(=O)N4CCOCC4)cc32)cc(OC)c1	5.32%
COC(=O)/C=C1\S/C(=N/NC(=O)c2ccccc2)NC1=O	11.1%
CCOC(=O)c1ccc2nc(C)c(CC)c(Cl)c2c1	12.2%
Cc1cc(OCC(=O)N(C)C2CCCCC2)cc(C)c1Cl	14.5%
COc1ccc(C2=CC3=C(Br)C(=O)C(C)(O)C(=O)C3=CO2)cc1 (stereo not shown)	12.2%
O=C(CCCOc1ccccc1)Nc1ccccc1C(F)(F)F	3.68%

From paper PMC4336329 (PLoS ONE, 2015)
